Assay results: the supplement of paper PMC3334620
Whole data set: some 33,000 sequences, median “E-score (-0.5 to 0.5)” near -0.041, cut for the highest 2% near 0.37. The list shows a part of the results.

Each sequence was assayed against T1, Ecm22 (UniProt Q05958) (assay: PBM E-score (8-mer binding enrichment) (E-score (-0.5 to 0.5)); higher = stronger / more preferred TF binding; most listed sequences are background and not binding sites). Settings: protein concentration: 200 nM; construct: GST-full length.
T1 sequence: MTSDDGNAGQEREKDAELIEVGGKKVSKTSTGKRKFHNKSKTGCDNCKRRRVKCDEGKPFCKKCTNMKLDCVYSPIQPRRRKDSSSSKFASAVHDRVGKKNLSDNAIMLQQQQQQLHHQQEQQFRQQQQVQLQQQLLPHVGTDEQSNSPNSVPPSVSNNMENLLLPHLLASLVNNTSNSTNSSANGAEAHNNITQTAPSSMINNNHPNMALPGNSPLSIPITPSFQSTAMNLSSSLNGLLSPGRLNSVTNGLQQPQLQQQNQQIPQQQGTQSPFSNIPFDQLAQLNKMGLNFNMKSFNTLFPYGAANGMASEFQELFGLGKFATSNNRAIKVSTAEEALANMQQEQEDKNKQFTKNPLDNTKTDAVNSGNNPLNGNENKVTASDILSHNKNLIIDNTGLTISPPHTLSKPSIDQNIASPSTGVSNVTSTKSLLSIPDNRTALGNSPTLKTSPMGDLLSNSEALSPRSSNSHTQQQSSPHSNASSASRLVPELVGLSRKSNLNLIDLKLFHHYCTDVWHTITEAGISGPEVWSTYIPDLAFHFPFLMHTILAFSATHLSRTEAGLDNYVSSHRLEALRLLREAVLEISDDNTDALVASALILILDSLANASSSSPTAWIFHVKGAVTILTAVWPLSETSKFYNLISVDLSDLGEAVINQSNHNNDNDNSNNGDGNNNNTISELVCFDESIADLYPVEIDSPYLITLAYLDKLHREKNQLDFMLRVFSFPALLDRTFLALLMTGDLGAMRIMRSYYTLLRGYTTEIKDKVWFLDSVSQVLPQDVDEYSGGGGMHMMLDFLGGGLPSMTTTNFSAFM
How it was run: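 Masliner-normalised scans of fluorescent anti-GST signal were the basis for scoring. That signal came from GST-tagged yeast transcription factors applied at about 100-200 nM to double-stranded universal all-10-mer Agilent arrays on fresh or once-stripped slides. Each ungapped eight-base word, pooled with its reverse complement, received an E-score from the Universal PBM Analysis Suite.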

Sequence | PBM E-score
AGTCGTAT | 0.46
CTTAAATA | -0.153
CGACCCTA | 0.0571
GGTGACCA | -0.103
CCTAATCC | -0.275
AATAAATC | -0.0573
GATAAGGC | -0.0542
AAAAGGCG | -0.052
GAGTTGAA | 0.04
GTCCCCTA | -0.313
CATACGAA | 0.451
CTTCCCGC | 0.0351
AGTGAACT | -0.132
ACCCATCA | -0.0127
AGGGCCCA | -0.227
AACTGGCT | -0.262
CGAAGGCC | 0.0747
AGAGCGGG | -0.173
CAGAGCAC | -0.061
GGGGGCAC | -0.232
GATCTGGC | -0.0579
ATCGGTGG | 0.0574
ATCCGATG | 0.176
ATTCACAA | -0.156
ACTAAAGG | -0.092

Sequence | PBM E-score
CCCCTTCC | -0.299
CGCACGCG | 0.0181
GAATGGGC | -0.0261
CGCAAAAG | -0.0689
TATTGCAA | 0.112
CGTACCTA | 0.441
AGGGGAAT | -0.219
GGAAGCAC | 0.0273
CATATCCC | -0.036
CGACTCAC | -0.0226
CTTAGAGA | -0.0992
CTAGAGAA | -0.00522
AACCTCAG | -0.0346
TACCAGGA | 0.0186
AAGCAAGG | -0.0358
ATGTAGCA | -0.0443
TAAAGTCA | -0.0121
CAAAAGAC | -0.154
CAAGGCCC | -0.184
AGAATCGG | 0.0286
ACTATATG | 0.16
TTAGTGAA | 0.0168
GAGGATGC | -0.0188
GATGCCCA | -0.0888
CTCGCTCA | 0.358

Sequence | PBM E-score
GCATATAA | 0.195
ATCGGATA | 0.301
CTGCCTTA | -0.302
CACATTGC | -0.235
CTGGCGCC | -0.0799
CACCCTAC | -0.0599
CGTGATCC | -0.153
CTGAGCTC | -0.2
CCCTAAAG | -0.123
CGGGGAGA | -0.115
CGTAGAAG | 0.214
GGTTTGAC | 0.115
ATACGTGG | 0.196
TAAATCCA | 0.13
CTTCATTC | -0.0928
ATATCTGG | -0.189
ACTACGAC | 0.329
CTCCGCAG | -0.0934
AAAATCTC | -0.0615
CTTCGAGC | -0.0794
CTGACCAC | -0.228
GCCAAGAC | -0.218
ATTCGCCA | -0.0226
TATTGTAA | -0.0855
TCACCTCA | -0.159

Sequence | PBM E-score
CGGCTCAA | -0.217
AGGCCTCC | -0.206
ATTGGCTG | -0.227
GGATTCAC | -0.106
GCTAACCA | -0.146
AGCCCTAG | -0.334
CATTAAAA | -0.00173
ATGCTAAT | 0.0728
CGTGATGA | -0.0666
GAGCTTAC | 0.00868
AAGTCGCT | 0.053
GGAGGCCC | -0.227
CGCCGGGC | -0.093
CCCGGGGC | -0.0902
ATGTACAC | -0.00463
CACGCGGA | -0.00262
GAACCATC | 0.0147
CCCTGACG | -0.253
GACCAAAA | 0.156
GCGGATAA | -0.007
AACTCAGT | -0.281
AACTACAC | 0.0816
CCGCCAAA | 0.0585
CCACCCAG | -0.232
TACACAAA | 0.212

Sequence | PBM E-score
GTATGGAA | 0.168
GATAGTCA | 0.0388
CCTGTGAA | 0.0461
GCTCTTAA | 0.0663
GGGGTAGA | -0.206
AATAGCTA | -0.0132
AAAGCATA | 0.0772
ATCTATAA | 0.129
GGGCTCCA | -0.282
CAGGTACA | -0.23
CATATTCC | -0.0731
AATCATAT | 0.065
CTGTGTAA | -0.00046
TAGGGAAA | -0.0897
CAGGATAC | -0.0107
CTTTCATA | 0.0788
GTGACAAC | -0.147
AAGCCTCC | -0.208
GCTAGAGA | 0.116
GAGATGAA | 0.0324
AAAATAGG | -0.132
CCGGCGCC | -0.0524
CGACTCTC | 0.127
GAAAGACC | -0.149
ACGGTTCG | 0.153

Sequence | PBM E-score
CTTGATTA | -0.227
GGTGGACA | -0.196
AAATTCGG | 0.0394
CTATATCA | -0.0165
ATAGAGTG | -0.0505
ACGTTCGA | -0.105
AAAATGTA | 0.0403
ATGACCAG | -0.205
AGATGAAC | 0.0914
GGTTGCGA | 0.123
CGGGGTTA | 0.0528
AAGTTGCG | 0.0127
ATAGCAAT | 0.0353
AATGTTGC | 0.101
CAGGCACG | -0.112
CCCGCTCC | -0.0292
AAGGCCGC | -0.126
AGATTGGC | -0.0974
AGAGCAGG | -0.0878
TATCGAGA | 0.111
CCCAGGGG | -0.27
ACAAGACT | -0.0403
GGTAGCCA | -0.182
TGTGTAAA | -0.0334
ACCGTAGT | 0.179

Sequence | PBM E-score
AACAATCA | -0.0645
CAATCACA | 0.0358
AAACCCAA | -0.203
ATGAATTC | -0.0262
ATCATAGG | -0.0957
CACTTTCC | -0.38
ACCCGAAG | 0.0561
GCGTTAGC | -0.158
AGGTGTCA | -0.142
TGTTCAAA | -0.139
GGGTGCGA | 0.199
AAAAATCA | -0.0853
GTTCAGGA | 0.126
CCATACAA | -0.0579
CCGAAAAA | 0.128
CAAATTAC | 0.023
GAGACGAC | 0.16
CTTAGGAA | -0.00034
TCAACTAA | -0.0383
GACGTTAA | 0.0928
AGAGTAAC | -0.0497
ACGATAGG | 0.208
AACTTAGG | -0.12
GTCTGGCA | -0.243
ACGGCAGG | 0.0317

Sequence | PBM E-score
GTATATGA | 0.207
ATTTACTA | 0.0632
CCGGATAA | 0.0584
ATTTTTCG | 0.0816
GGGTTCAA | -0.198
CTCTCCCA | -0.217
GTTGGAGA | -0.0819
GTTGTGAA | -0.0354
CTATTGTC | -0.125
ACGGGAAT | 0.255
ACCAAGTA | 0.143
GATGGAAA | -0.0526
TCCTCTCA | -0.232
CTGTTCGC | 0.13
GTTACTAA | 0.101
GCCCACCC | -0.1
CTGGGGTA | -0.237
GTCGGGTA | 0.228
GGGTCTAA | -0.254
CTTAGATA | -0.195
ATACCGTA | 0.295
ATGGCCAT | -0.237
AATCGCCT | 0.0224
AACGCTCG | 0.247
CCAAACTC | -0.0279

Sequence | PBM E-score
GATGGGGC | -0.174
CGACCTAC | 0.0692
ACCCGCGC | -0.0239
GGCCTACA | -0.101
CCGTACAG | 0.388
CGGGGAAC | 0.198
AAAATCGC | 0.127
AACTATAC | 0.257
AACGTTAC | 0.136
GAAGATCA | 0.142
GCGATGCA | -0.0198
CGAACAGA | 0.101
ACCAAACC | -0.123
GTCGCGAA | 0.26
ACCGACAT | 0.217
TATCCGAA | 0.261
CCGGGTTC | 0.136
GAGAGCCA | -0.0861
AAGATCAC | 0.0218
